Experimental data published in PubChem BioAssay (NCI).
“And” between values parts separate entries of the source, which are not always exact repeats. Equal entries are not always repeated.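 Exposure lasted 48 hours, with cells grown in 96-well plates and compounds tested at five concentrations. GI50 is the concentration that inhibits growth by half. TGI marks complete inhibition of growth.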 Peptide text beside a SMILES is read from it. * marks the point of attachment. Trt = c1ccc(C(c2ccccc2)(c2ccccc2)*)cc1; Cbz = O=C(OCc1ccccc1)*

system: NCI-H322M lung; assay: NCI anticancer screen, dose series, 48 h

Compound | TGI | GI50 [µM]
COc1ccc(C(O)/C(=N/N)c2nc3ccc(Cl)cc3[nH]c2=O)cc1 (stereo not given) | > 100 µM | –
CN=c1ss/c(=N\C(=S)N(C)C)n1C | > 100 µM | –
CC(CSC(=N)N)C(N)=O (stereo not given) | > 100 µM | –
N#CCCn1[nH]c(=O)c(Cl)c(Cl)c1=O | 30.2 µM | –
O=C1CN(c2ccccc2)Cc2nc(Cl)ccc2N1 | > 100 µM | –
O=[N+]([O-])c1ccc(SN=S=NSc2cccc(SN=S=NSc3ccc([N+](=O)[O-])cc3)c2)cc1 | > 100 µM | –
NC1NC=NC2C1N=CN2C1OC(CO)C2[O][Sn][O]C21 (stereo not given) | > 100 µM | > 100
COc1cc(OC2OC(CO)C(O)C(O)C2O)c2c(O)c3c(=O)cc(C)oc3cc2c1 (stereo not given) | > 100 µM | –
C[C@]12C=CC(=O)C=C1CC[C@@H]1[C@@H]2CC[C@@]2(C)[C@H]1CC[C@]2(O)C(N)=O | > 100 µM | –
Clc1ccc(Cl)c(N=Nc2cc3c4c(c2)CCN4CCC3)c1 | > 10 µM | –
Oc1ccc(Br)cc1C=Nc1cccc(C(F)(F)F)c1 | 96.2 µM | –
COc1cc2c(c(OC)c1OC)-c1ccc(NN(C(=O)c3ccccc3)C(=O)c3ccccc3)c(=O)cc1[C@@H](NC(C)=O)CC2 (tested in a mixture with another compound) | 51.7 µM | 4.09
COc1ccccc1NC(=O)C1=C(C)NC(C)=C(C(=O)Nc2ccccc2OC)C1c1ccccc1[N+](=O)[O-] | > 100 µM | –
O[C@]12C=C(c3nccc4c3[nH]c3ccccc34)[C@@H]3CCN(CCCC/C=C\CC1)C[C@@]31CC3/C=C\CCCCN3[C@H]12 (stereo not given in full) | 19.2 µM | –
Cc1ccc(C(=O)CC2(O)C(=O)Nc3c(C)cc(Cl)cc32)cc1 (stereo not given) | > 100 µM | –
CC(C)Oc1c(C2(c3ccccc3)SCCCS2)c(=O)c1=O | > 100 µM | –
O=C1[C@@H]2C(c3ccc(Br)cc3)=NO[C@@H]2C(=O)N1c1ccc(Cc2ccc(N3C(=O)[C@H]4C(c5ccc(Br)cc5)=NO[C@H]4C3=O)cc2)cc1 | > 3.48 µM | –
Nc1ccc2n[se]nc2c1 | > 100 µM | –
Clc1ccc(Nc2nnc(CNc3ccc(-c4nnc(Nc5ccc(Cl)cc5)s4)cc3)s2)cc1 | 85.9 µM | –
O=C1CCN2c3ccccc3[C@H]3Cc4cccc(c4[C@@H]2C3)CCO1 | > 100 µM | –
CC1=CC2C(C=C1)S(=O)(=O)N1CC21c1ccccc1 (stereo not given) | > 100 µM | –
CC(C)c1cccc(C(C)C)c1NC(=O)C(=O)Cc1nc2ccc([N+](=O)[O-])cc2[nH]c1=O | > 100 µM | –
COc1ccc2c(c1)OC(N)=C(C#N)C2c1cc(OC)c(OC)c(OC)c1 (stereo not given) | > 100 µM | 0.0533
C#Cc1cccc(Nc2ncnc3cc(NC(=O)CCl)ccc23)c1 | 6.96 µM | 3.62
CC(C)(C)N=CN1C=Cc2nc3ccccc3cc2C1 | > 100 µM | –

Compound | TGI | GI50 [µM]
CC(C)(CN1C(=O)C(Cl)=C(Cl)C1=O)CN1C(=O)C(Cl)=C(Cl)C1=O | 57.3 µM | –
CS(=O)(=O)N1CC(CCl)c2ccc(NO)cc21 (stereo not given) | > 76.8 µM | –
COc1ccccc1/C=C(/C)[N+](=O)[O-] | 32.8 µM and 22.1 µM | –
CCN1CCN(c2nc(C)cc(N(CCCNc3ccnc4cc(Cl)ccc34)Cc3ccc4c(c3)OCO4)n2)CC1 | 6.13 µM | 2.14
COC(=O)C(CO)NC(=O)C(CSC(c1ccccc1)(c1ccccc1)c1ccccc1)NC(=O)OCc1ccccc1 (stereo not given) (Cbz-Cys(Trt)-Ser-OMe; configuration not given here) | 47.8 µM | –
O=C1/C(=C/c2ccc(Cl)c(Cl)c2)CN(C(=O)C(Cl)Cl)C/C1=C\c1ccc(Cl)c(Cl)c1 | 1.4 µM | 0.355
CSc1ncnc2c1cnn2Cc1cn(COCCO)nn1 | 96.3 µM | –
COC(=O)C(CC(C)C)NC(=O)C(NC(=O)c1ccc(-c2ccc(Cl)cc2Cl)o1)C(C)C (stereo not given) | > 100 µM | –
CSc1ccc(C2=C(c3ccccc3)C(=O)OC2)cc1 | 53.7 µM | 3.79
C[N+](C)(CCCCCC[N+](C)(C)CCCN1C(=O)c2cccc3cccc(c23)C1=O)CCCN1C(=O)c2cccc3cccc(c23)C1=O | > 100 µM | –
C1CNOCCCONCCCNOCCCONC1 | > 100 µM | –
COc1ccc(C2c3cc4c(cc3OC(NNc3ccccc3)C2C)OCO4)cc1 (stereo not given) | > 100 µM | –
Cn1cc(/C=C\[N+](=O)[O-])c2ccccc21 | > 100 µM | > 100
C#CC[C@@H]1C(=O)N(Cc2ccc(OC)cc2)[C@@H](C(C)C)C(=O)N1Cc1ccc(OC)cc1 | > 100 µM | –
C[C@@]1([C@H](OC(=O)c2ccccc2)C(N)=O)CO1 | 70.7 µM | 42.7
Cc1cccc(C2ON=C(c3ccccc3)N2C23CC4CC(CC(C4)C2)C3)c1 (stereo not given) | > 10 µM | –
CCOCC1(COCC)CCC(c2[nH]ncc2CN(C)CCNC)CC1 | > 100 µM | > 100
O=c1[nH]/c(=C/c2ccc3c(c2)OCO3)c(=O)[nH]/c1=C/c1ccc2c(c1)OCO2 | > 10 µM | –
O=[N+]([O-])c1ccc(C2=Nc3ccccc3S(=O)C(c3ccccc3)C2)cc1 (stereo not given) | > 100 µM | –
COc1nc(N=P(c2ccccc2)(c2ccccc2)c2ccccc2)cc(=O)n1C | > 100 µM | –
CC1=NN(c2nc(N)nc(NS(=O)(=O)c3cc(C)c(Cl)cc3S)n2)C(C)(C)C1 | > 10 µM | –
O=C(CS(=O)(=O)c1nc2ccccc2nc1-c1ccccc1)Nc1ccc(F)cc1 | > 100 µM | 51
FC(F)(F)c1ccc(C2ON=C(c3ccccc3)N2C23CC4CC(CC(C4)C2)C3)cc1 (stereo not given) | > 10 µM | –
O=C(Cc1ccccc1)NN1C(=O)C(Cl)C1c1ccccc1Cl (stereo not given) | > 100 µM | –
